Data published in PubChem BioAssay (Tox21).
“And” between values parts separate entries of the source, which are not always exact repeats. Equal values may be shown once. The shares of active, inactive and inconclusive entries below differ from those in the screen. Where the call is inconclusive, the potency comes from a doubtful curve fit. The source made the active and inactive calls. Unless noted, calls come from the whole dose curve; as a rule, active = well fitted activation curve with a large enough effect in the repeat runs; inconclusive = weak or mixed curves; inactive = no such curve, though single readings can be large or run the other way.

Assay: qHTS assay for small molecules that induce genotoxicity in human embryonic kidney cells expressing luciferase-tagged ATAD5 (AID 651632); note: nearly all actives have a fitted effect of over 15% in size
Conditions: HEK293T ATAD5-luciferase induction, 16 h; series mostly up to 83.3 µM
In short: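 ATAD5-luc HEK293T, 2,000 cells/well; cpd or DMSO pin-transferred; 16 hr, 37C/5% CO2; Amplite 30 min RT; luminescence.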
Potency is the fitted concentration of half-maximal effect; tags give direction and shape of the fitted curve.

Which Potency does the source give for `COc1cccc(O)c1O` here?
Its Potency is inconclusive: 56.6 µM [activator, partial curve].

With `c1cc(N(CC2CO2)CC2CO2)ccc1OCC1CO1` (stereo not drawn) as the compound, how does the Potency read?
The Potency was active: 13.7 µM and active: 17.2 µM.

With `O=C(CC(=O)c1ccccc1)c1ccccc1` as the compound, how does the Potency read?
Its Potency is active: 11.7 µM.

For `Oc1ccc2c(c1)Cc1ccccc1-2`, which Potency is on record?
The Potency was inconclusive: 61.1 µM [activator, partial curve, poor fit].

For `Cc1ccc(O)c(-n2nc3ccccc3n2)c1`, which Potency is on record?
The Potency was active: 9.44 µM and inconclusive: 9.61 µM [activator, full curve, poor fit] and active: 6.11 µM.

With `NC(=Nc1ccccc1)Nc1ccccc1` as the compound, how does the Potency read?
Its Potency is inconclusive: 13.7 µM [activator, full curve, poor fit].

For `CCC(C(=O)NC(N)=O)c1ccccc1` (stereo not drawn), which Potency is on record?
The Potency was “inactive”.

For `CCOC(C)=O`, which Potency is on record?
Its Potency is inconclusive: 68.9 µM [activator, single point].

For `CO[Si](C)(C)OC`, which Potency is on record?
Its Potency is inconclusive: 9.69 µM [activator, partial curve, poor fit].

With `O=[N+]([O-])c1ccccc1Nc1ccccc1` as the compound, how does the Potency read?
Its Potency is “inactive”.

For `C[C@@]12C(=O)OC(=O)[C@]1(C)C1CCC2O1`, which Potency is on record?
The Potency was active: 0.902 µM.

Which Potency does the source give for `CC(C)CCCCCCCOC(=O)CCCCC(=O)OCCCCCCCC(C)C` here?
The Potency was inconclusive: 89.6 µM [activator, single point].

For `Nc1ccccc1N`, which Potency is on record?
Its Potency is inconclusive: 24.9 µM [activator, partial curve].

For `NCCO`, which Potency is on record?
Its Potency is “inactive”.

For `Nc1nc(-c2ccccc2)cs1`, which Potency is on record?
Its Potency is inconclusive: 48.4 µM [activator, partial curve, poor fit].

Which Potency does the source give for `O=C1CC2CC1C1CCCC21` (stereo not drawn) here?
Its Potency is inconclusive: 61.1 µM [activator, partial curve, poor fit].

With `CCCOC(=O)c1ccc(O)cc1` as the compound, how does the Potency read?
The Potency was inconclusive: 77 µM [activator, partial curve, poor fit].

Which Potency does the source give for `O=C(OCc1ccccc1)c1ccc(O)cc1` here?
Its Potency is inconclusive: 18.8 µM [activator, partial curve] and inconclusive: 24.3 µM [activator, partial curve, poor fit].

Which Potency does the source give for `CC1=C(Br)C(=O)C(Br)=C/C1=C(/c1ccccc1S(=O)(=O)O)c1cc(Br)c(O)c(Br)c1C` here?
Its Potency is “inactive”.

Which Potency does the source give for `OC[C@@H](O)[C@@H](O)[C@H](O)[C@@H](O)CO` here?
Its Potency is “inactive”.

For `N=C1N=C(N)c2ccccc21`, which Potency is on record?
The Potency was active: 21.7 µM.

With `Nc1ccc(O)c([N+](=O)[O-])c1` as the compound, how does the Potency read?
Its Potency is “inactive”.

With `c1cc(C(c2ccc(OCC3CO3)cc2)C(c2ccc(OCC3CO3)cc2)c2ccc(OCC3CO3)cc2)ccc1OCC1CO1` (stereo not drawn) as the compound, how does the Potency read?
The Potency was inconclusive: 44.9 µM [activator].

For `CC(COC(=O)c1ccccc1)OC(=O)c1ccccc1` (stereo not drawn), which Potency is on record?
Its Potency is “inactive”.

With `C=Cc1ccc(S(=O)(=O)O)cc1` as the compound, how does the Potency read?
The Potency was inconclusive: 77 µM [activator, partial curve, poor fit].

With `NNCCc1ccccc1` as the compound, how does the Potency read?
The Potency was inconclusive: 12.7 µM [activator].

With `Nc1ncnc2nc[nH]c12` as the compound, how does the Potency read?
The Potency was inconclusive: 18.8 µM [activator, partial curve].

Which Potency does the source give for `CCN(CCN)c1cccc(C)c1` here?
The Potency was “inactive”.

With `C=CC(=O)[O-].C=CC(=O)[O-].[Zn+2]` as the compound, how does the Potency read?
The Potency was inconclusive: 67 µM [activator, single point].

For `Nc1ccc2cc3ccccc3cc2c1`, which Potency is on record?
The Potency was active: 27.8 µM and inconclusive: 9.69 µM [activator, full curve, poor fit].

With `CC1COc2ccccc2N1C(=O)C(Cl)Cl` (stereo not drawn) as the compound, how does the Potency read?
Its Potency is inconclusive: 17.2 µM [activator, partial curve, poor fit] and inconclusive: 15.3 µM [activator, full curve, poor fit].

With `CC1(C)O[C@@H]2C[C@H]3[C@@H]4C[C@H](F)C5=CC(=O)C=C[C@]5(C)[C@@]4(F)[C@@H](O)C[C@]3(C)[C@]2(C(=O)CO)O1` as the compound, how does the Potency read?
Its Potency is inconclusive: 0.0086 µM [activator, full curve, poor fit].

Which Potency does the source give for `CN1C(CSCC(F)(F)F)Nc2cc(Cl)c(S(N)(=O)=O)cc2S1(=O)=O` (stereo not drawn) here?
Its Potency is “inactive”.

For `NC(N)=NN=C(/C=C/c1ccc([N+](=O)[O-])o1)/C=C/c1ccc([N+](=O)[O-])o1`, which Potency is on record?
Its Potency is inconclusive: 2.98 µM [activator, single point].

Assay: qHTS assay for small molecule agonists of the p53 signaling pathway - cell viability (AID 651633; calls by dose curve; note: nearly all actives have a fitted effect of over 30% in size)
Conditions: p53RE-bla HCT-116 viability, ATP luminescence, 16 h; series mostly up to 83.3 µM
In short: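 p53RE-bla cells were treated with compound for 16 hours at 37 C. Cytotoxicity was then measured as CellTiter-Glo luminescence after 30 min at room temperature.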

With `CCC(=O)/C=C/C1C(C)=CCCC1(C)C` (stereo not drawn) as the compound, how does the Potency read?
The Potency was inconclusive: 68.6 µM [cytotoxic, single point].

Which Potency does the source give for `CC(C)(C)C1=CC(=O)C=C(C(C)(C)C)C1=O` here?
Its Potency is inconclusive: 68.6 µM [cytotoxic, single point].

With `NC(=O)c1nc(-c2cccc(-c3cc(F)ccc3OCC(F)(F)C(F)(F)F)c2)n[nH]1` as the compound, how does the Potency read?
Its Potency is inconclusive: 61.1 µM [cytotoxic, single point].

For `Cc1ccc(S(N)(=O)=O)cc1`, which Potency is on record?
Its Potency is inconclusive: 60.8 µM [cytotoxic, partial curve, poor fit].
